The structures appear in SMILES notation. Screen size: about 150,000 compounds; about 540 (0.36%) showed an effect of 50% or more. Some of the results follow.

This test concerns Plasmodium falciparum. In words: Primary screen in NF54 nanoGlo assay, in single point, at 2uM, 72h; a lower Z score goes with more inhibition. In kind it is functional, Erythrocyte. As to conditions: timepoint 72 hour.
As to `O=C(NCCc1ccc(F)cc1)c1cc2c(cc1O)OCO2`, the “% Inhibition” value was -9% and the Z score is 1.2.

Take `CNC(=O)COc1ccc(Br)cc1C`: the “% Inhibition” value turned out to be 2% and the Z score is -0.25.

Take `Cc1ccccc1S(=O)(=O)NCc1noc(CC(C)C)n1`: the “% Inhibition” value was -15% and the Z score turned out to be 1.9.

`O=S1(=O)CC[C@H](Nc2nc(C(F)(F)F)ns2)CC12CCC2`: the “% Inhibition” value was -6% and the Z score was 0.63.

As for `CCn1ccnc1CN(C)C(=O)NCc1ccc(OC(C)C)c(OC)c1`, the “% Inhibition” value was 4% and the Z score is given as -0.65.

In the case of `Cn1cc(N2C[C@@H](C(=O)N3CCOCC3(C)C)CCC2=O)cn1`, the “% Inhibition” value is listed as -1% and the Z score is given as 0.24.

Turning to `CC1(C)CNc2cc(F)c(Br)cc21`, the “% Inhibition” value is on record as -7% and the Z score came to 0.78.

Turning to `COc1ncc(CN2CCC[C@H](CN3CCOCC3)C2)cn1`, the “% Inhibition” value is reported as -14% and the Z score is 2.06.

Consider `CN(CCc1ccccn1)[C@H]1CCN(Cc2cc(C#CCO)cs2)C[C@@H]1O`, for which the “% Inhibition” value is -7% and the Z score worked out at 0.87.

For the compound `O=C([C@@H]1CCCc2[nH]cnc21)N1CCCN(CC2CCC2)CC1`, the “% Inhibition” value is on record as -3% and the Z score was 0.29.

In the case of `C[C@H](Oc1cccnc1)C(=O)N1CCC(CN2CCNC2=O)CC1`, the “% Inhibition” value is on record as 2% and the Z score was -0.27.

Turning to `Cc1scc2nc(C(=O)NCCN3CCCCC3)nc(N(C)C)c12`, the “% Inhibition” value was found to be 15% and the Z score is -1.75.

As for `Cc1nc(C(NC2CCOC2)c2ccc(Cl)c(F)c2)no1` (stereo not drawn), the “% Inhibition” value is -19% and the Z score is recorded as 2.75.

Turning to `CC(C)NC(=O)N1CCN(c2ccc(Cl)c(NC(=O)CN(Cc3ccc(F)cc3)C(=O)C(C)C)c2)CC1`, the “% Inhibition” value was -17% and the Z score came out at 1.83.

Consider `Cn1cc(CCN2CCC(C(=O)N3CCC(Cc4ccccc4)CC3)CC2)c2cccnc21`, for which the “% Inhibition” value is reported as -17% and the Z score is reported as 1.94.

For the compound `CC(C)(C)OC[C@@H](O)CN1CCN(Cc2nc(C(=O)Nc3cccc(F)c3)co2)CC1`, the “% Inhibition” value is given as -4% and the Z score is recorded as 0.56.

For the compound `Nc1nc(N[C@@H]2COCC[C@@H]2OCC2CC2)c2cn[nH]c2n1`, the “% Inhibition” value is given as -2% and the Z score is reported as 0.29.

In the case of `Cc1ccc2[nH]c(=O)cc(C(=O)N3CC[C@](C)(O)[C@H](O)C3)c2c1`, the “% Inhibition” value was -6% and the Z score stood at 0.61.

In the case of `CC(C)c1nccc(-c2nccn2CCN2CCNC2=O)n1`, the “% Inhibition” value is on record as 5% and the Z score was -0.71.

Take `CCOc1cc(C(=O)Nc2cnn(-c3ccncc3)c2)ccc1C`: the “% Inhibition” value is reported as 10% and the Z score is -1.15.

Regarding `O=C(Nc1ccc(Cl)cc1)N1CCCN(Cc2ccc(F)cc2)C1`, the “% Inhibition” value is on record as -6% and the Z score is listed as 0.97.

Consider `O=C(CCc1cc2n(n1)CCCN(Cc1ccncc1)C2)N1CCCC1`, for which the “% Inhibition” value is given as -11% and the Z score worked out at 1.17.

On to `CC(C)(O)CCc1ccc(C(=O)N2CC[C@H]2c2ccc(F)cc2)cc1`, for which the “% Inhibition” value is listed as -3% and the Z score is given as 0.36.

In the case of `Cc1n[nH]cc1Nc1ccc(Cl)c(C#N)n1`, the “% Inhibition” value is listed as -19% and the Z score came to 1.62.

In general, % Inhibition refers to the change of the read-out against control, counted positive when it falls.

(Values after ChEMBL document CHEMBL4888484, “Replenishing the malaria drug discovery pipeline: Screening and hit evaluation of the MMV Hit Generation Library 1 (HGL1) against asexual blood stage Plasmodium falciparum ,using a nano luciferase reporter read-out” (2022).)
